From paper PMC4336329 (PLoS ONE, 2015)
Out of some 310,000 compounds screened, about 14,000 (4.5%) showed an effect of 50% or more. Effects have a minus sign here. This is one part of the list.

The compounds below were run against human ether-à-go-go-related gene (hERG) potassium channel (human, UniProt Q12809) (assay: primary screen, population patch clamp on CHO cells stably expressing hERG).
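Note: peak tail current of the secondary pulse compared with the same well before compound.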

Chain of human ether-à-go-go-related gene (hERG) potassium channel (Q12809 whole entry, looked up): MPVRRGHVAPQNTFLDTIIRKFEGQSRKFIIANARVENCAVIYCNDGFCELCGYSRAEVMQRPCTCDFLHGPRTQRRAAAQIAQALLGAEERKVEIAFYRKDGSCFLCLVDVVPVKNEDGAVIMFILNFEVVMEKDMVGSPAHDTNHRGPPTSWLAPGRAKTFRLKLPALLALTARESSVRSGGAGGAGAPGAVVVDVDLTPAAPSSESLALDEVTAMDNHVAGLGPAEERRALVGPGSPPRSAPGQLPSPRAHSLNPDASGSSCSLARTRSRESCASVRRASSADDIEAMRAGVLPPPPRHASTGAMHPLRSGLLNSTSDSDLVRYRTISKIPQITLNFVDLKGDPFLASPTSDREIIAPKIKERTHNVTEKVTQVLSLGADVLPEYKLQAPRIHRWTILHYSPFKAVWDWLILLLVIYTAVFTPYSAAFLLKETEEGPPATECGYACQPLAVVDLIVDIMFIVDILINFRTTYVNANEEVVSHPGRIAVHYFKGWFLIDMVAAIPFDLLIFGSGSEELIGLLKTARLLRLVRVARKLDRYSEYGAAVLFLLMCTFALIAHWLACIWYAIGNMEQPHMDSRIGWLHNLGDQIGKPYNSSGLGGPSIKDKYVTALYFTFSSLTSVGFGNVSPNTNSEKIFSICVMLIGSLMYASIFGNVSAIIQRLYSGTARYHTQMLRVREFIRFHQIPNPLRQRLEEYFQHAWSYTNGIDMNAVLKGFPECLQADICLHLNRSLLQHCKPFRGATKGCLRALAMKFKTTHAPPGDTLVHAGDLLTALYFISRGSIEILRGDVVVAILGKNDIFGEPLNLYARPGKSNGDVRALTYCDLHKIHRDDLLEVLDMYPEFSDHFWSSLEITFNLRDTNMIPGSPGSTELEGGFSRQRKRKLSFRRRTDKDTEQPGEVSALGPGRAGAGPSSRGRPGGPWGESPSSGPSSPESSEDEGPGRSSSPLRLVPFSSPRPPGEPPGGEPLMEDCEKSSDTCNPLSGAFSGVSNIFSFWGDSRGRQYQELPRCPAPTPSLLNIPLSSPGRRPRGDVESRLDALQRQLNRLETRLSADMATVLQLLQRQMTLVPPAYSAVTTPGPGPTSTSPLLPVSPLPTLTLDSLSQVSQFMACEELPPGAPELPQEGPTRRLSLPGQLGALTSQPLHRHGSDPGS

SMILES	hERG current change (%, negative = inhibition) at 10uM [%]
O=C1CCc2cc(S(=O)(=O)N3CCCCC3)cc3c2N1CC3	14.5
Cc1cccc(OCCC(=O)NCC(=O)Nc2c(C)cccc2C)c1	6.41
Cc1ccc(C)c(OCCn2cc(C(=O)O)c3ccccc32)c1	3.66
COc1ccc(C(=O)CSc2nnc(CNC(=O)c3ccccc3F)n2C)cc1OC	19.2
Cc1ccc(S(=O)(=O)N(C)c2c(C)ccc(S(=O)(=O)N3CCN(C)CC3)c2C)cc1	-60.8
COc1ccc(C(=O)OCC[N+]2(C)CCOCC2)cc1.[I-]	13.6
Oc1c(C(c2cccs2)N2CCN(c3ccc(F)cc3)CC2)sc2ncnn12 (centres unmarked)	-66
O=c1cc(-c2cccs2)oc2ccc(Cl)cc12	4.48
CCN1CCN(Cc2ccc(NC(=O)c3cc(NC(=O)c4cc(-c5ccc(OC)cc5)n[nH]4)cc(OC)c3)cc2C(F)(F)F)CC1	11.9
O=C(Nc1ccccc1N1CCOCC1)c1cccnc1	15
O=[N+]([O-])c1cc(Cl)c2cccnc2c1O	4.37
COc1cccc(C2N(c3ccccn3)C(=O)C3CCCN32)c1OC (centres unmarked)	12.2
Cc1ccc(COC(=O)c2cccc(S(=O)(=O)N3CCCCCC3)c2)cc1	-16.4
CCn1nnnc1SCC(=O)c1cc(Cl)ccc1OC	7.87
O=C(Cc1cccs1)Nc1cc(SCCO)cc([N+](=O)[O-])c1	-14.9
CCOc1ccc(N2CC(C(=O)Nc3ccccc3C(=O)NC3CC3)CC2=O)cc1 (centres unmarked)	-76.7
C=CCn1c(NCCc2ccccc2)nc2c1c(=O)n(C)c(=O)n2C	-1.17
N#CCCN(C(=O)COC(=O)c1ccc(CNS(=O)(=O)c2ccc(F)c(Cl)c2)cc1)c1ccc(F)cc1	-5.28
CC(=O)N1CCCc2cc(S(=O)(=O)N3CCC(C)CC3)ccc21	-12.9
O=C1c2ccccc2C(=O)N1CCSc1nnc(-c2ccco2)n1Cc1ccccc1	-72.8
CCOC(=O)c1c(SCc2ccccc2)n[nH]c1N	13.3
C=C(C)[C@@H]1C2C(=O)O[C@H]1[C@H]1OC(=O)[C@@]34OC3C[C@]2(O)[C@@]14C (some centres unmarked)	10.7

SMILES	hERG current change (%, negative = inhibition) at 10uM [%]
C/C(=C\C(=O)c1ccc(F)cc1)NCc1ccc2c(c1)OCO2	0.418
COc1cccc(-c2ccc(-c3noc(-c4cccs4)n3)c(OC)n2)c1	8.39
CCCCNC(=S)NNC(=O)c1csc(CC)c1	6.74
CCCOC(=O)CSC1=C(C#N)C(c2ccccc2Cl)CC(=O)N1 (centres unmarked)	-6.15
COc1ccc(N2CCN(C(=O)c3ccc(C)c(Cl)c3)CC2)cc1	-29.3
CCOC(=O)c1ccc(NC(=S)N(CCN2CCCCCC2)Cc2ccco2)cc1	-78.3
CCOc1ccc(C2C3=C(CCCC3=O)Nc3nc(C(F)(F)F)nn32)cc1OC (centres unmarked)	-3.02
CC1(C)Cc2c(cnn2-c2ccccc2)C(=O)/C1=N\NC(=O)c1ccccc1	12.6
CCN(CC)C(=O)Cn1cc(C(=O)C(=O)N2CCN(Cc3ccccc3)CC2)c2ccccc21	8.19
Cc1ccc(C)c(/C(O)=C2\C(=O)C(=O)N(CCCn3ccnc3)C2c2ccncc2)c1 (centres unmarked)	16.9
C/C(=N\NC(=O)c1ccccc1)c1ccc2c(c1)OCO2	14.2
O=C(COC(=O)CNC(=O)c1ccc(Br)cc1)Nc1nnc(-c2ccccc2)o1	3.05
CCCOc1ccc(C2C(=O)N(C3CCCCC3)CC(=O)N2CCC)cc1OC (centres unmarked)	-11.5
O=C(COc1ccc(-c2ccccc2)cc1)N/N=C/c1cc(O)ccc1Br	2.64
O=C(O)CC1SC(=Nc2cccc(O)c2)NC1=O (centres unmarked)	3.87
CCOc1ccc(NC(=O)CCn2c(=S)oc3ccccc32)cc1	21.3
NC(=O)CC(NC(=O)Cc1ccc(Br)cc1)c1ccc(NC2CCCCCC2)c([N+](=O)[O-])c1 (centres unmarked)	2.48
CCn1ncc(Cl)c1C(=O)NC(=S)Nc1ccccc1Br	23.9
CN(C)c1cncc(C(=O)O)c1	15.5
OCCC1CN(Cc2cc(F)ccc2F)CCN1CCCc1ccccc1 (centres unmarked)	-70.3
CN(CCC#N)S(=O)(=O)c1cc2c3c(c1)CCN3C(=O)CC2	22.1
CCCCC/C=N\NC(=O)Cc1ccc([N+](=O)[O-])cc1	0.637

SMILES	hERG current change (%, negative = inhibition) at 10uM [%]
CC(=O)Nc1ccc(-c2csc(Nc3ncccn3)n2)cc1	-14.4
Cc1cc(C)c2[nH]c(O)c(N=NC(=O)c3cc4c(s3)CCCC4)c2c1	21.7
CCCc1cc(=O)[nH]c(-n2[nH]c3c(c2=O)CCCC3)n1	13.9
CSc1nc(NC(C)(C)C)nc(Oc2ccc(=O)n(C)n2)n1	-22.2
CCOC(=O)C1CCCN(S(=O)(=O)c2cnc(Cl)c(Br)c2)C1 (centres unmarked)	5.34
Cc1ccc(NC(=O)c2cc(NC(=O)C3CC=CCC3C(=O)O)ccc2N2CCOCC2)cc1 (centres unmarked)	5.96
CCCCc1ccc(NC(=O)CSc2nc(=O)n(CCN(C)C)c3c2CCC3)cc1	-56.4
Fc1cccc(NC(=S)N2CCCC2)c1	6.29
CC(C)CNC(=S)N(CCCN(C)C)Cc1cc2cc3c(cc2[nH]c1=O)OCCO3	12
CC1CCCC(C)N1C(=O)COC(=O)c1cc([N+](=O)[O-])ccc1N1CCOCC1 (centres unmarked)	-24.9
O=C(NCCSCc1c(F)cccc1Cl)Nc1ccccc1	-1.79
COc1cc(C)ccc1OCC(=O)Nc1ccc2c(c1)OCO2	-1.08
O=C(CSc1nc2ncc(Br)cc2[nH]1)Nc1ccccc1-c1ccccc1	24.5
Cc1nnc(N/N=C/c2cccc(C(F)(F)F)c2)n1N	3.42
O=C(CCCC(=O)N(CC(=O)NC1CCCCC1)Cc1ccc2c(c1)OCO2)Nc1ccccn1	-54.3
COc1ccc(CC(NC(C)=O)C(=O)NC2CCN(S(=O)(=O)c3ccccc3)CC2)c(OC)c1 (centres unmarked)	20.5
O=C(c1ccc(N2C(=O)C3CCCCC3C2=O)cc1)N1CCCCC1 (centres unmarked)	-2.22
CC(C)c1ccc(NC(=O)Cn2c(=O)oc3ccccc32)cc1	19.5
CC(C)Cn1c(N)c(C(=O)COC(=O)c2ccccc2F)c(=O)n(C)c1=O	-14.7
CCCCOc1ccc(CNC(=O)NS(=O)(=O)c2ccc(OCC)cc2)cc1	13
CC(NC(=O)/C=C/c1ccccc1[N+](=O)[O-])C1CC2CCC1C2 (centres unmarked)	8.42
CCOC(=O)C1C(c2ccc(C(=O)O)cc2)NC(=O)NC1(O)C(F)(F)F (centres unmarked)	-1.42

SMILES	hERG current change (%, negative = inhibition) at 10uM [%]
COc1ccc(O)c(C(=O)c2cc(C#N)c(=O)n(CC3CCCO3)c2)c1 (centres unmarked)	-25.3
Cc1ccc(C)c(-n2c3nc(=O)[nH]c(=O)c-3cc3cc([N+](=O)[O-])ccc32)c1	-15
O=C(Nc1cc2c3c(c1)CC(=O)N3CCC2)c1ccccc1F	0.297
COc1ccc(C(=O)N/C(=C\c2ccco2)C(=O)NCCN2CCOCC2)cc1	8.33
COC(=O)c1ccc(C2=NOC(C)(c3nnc(Cc4ccccc4)o3)C2)cc1 (centres unmarked)	-0.775
CN(C(=O)COC(=O)c1cc(NS(=O)(=O)c2cc([N+](=O)[O-])ccc2Cl)ccc1O)C1CCCCC1	-17.1
Nc1ccc(C(=O)OCC(=O)NC2CCCc3ccccc32)cc1[N+](=O)[O-] (centres unmarked)	-2.26
CN1CCN(S(=O)(=O)c2ccc3c(c2)CC(=O)N3C)CC1	4.24
CC(NC(=O)OC(C)(C)C)C(=O)Oc1cc2oc(=O)cc(-c3ccccc3)c2cc1Cl (centres unmarked)	-0.559
Cc1ccc(Sc2nc(C)cc(C)c2S(C)(=O)=O)cc1	2.54
O=C(O)CSc1nnc(COc2ccc([N+](=O)[O-])cc2)n1-c1ccccc1	12.3
CCN(c1ccc(OC)cc1)S(=O)(=O)c1nnc(NC(=O)COc2ccc(F)cc2)s1	18.6
CCC(C)c1ccc(OCC(=O)Nc2ccc(CN3CCOCC3)cc2)cc1 (centres unmarked)	-36.2
O=C(CSCc1c(F)cccc1Cl)Nc1cccnc1	-3.54
CN(C)C(=O)c1ccc(-n2cnc3ccccc3c2=O)cc1	8.8
COc1ccc(/C=N/NC(=O)CN(C2=NS(=O)(=O)c3ccccc32)c2ccccc2)cc1	1.4
CC(=O)SC(C)CC(=O)NCc1ccccc1 (centres unmarked)	22.7
Cc1ccc(F)cc1NCC(=O)Nc1ccc(Br)cc1	13.1
CC(C)(C)c1ccc(CS(=O)(=O)CC2(O)CCN(C(=O)c3cccc(C(F)(F)F)c3)CC2)cc1	1.21
COC(=O)C1=C(c2ccc3ccccc3c2)C[C@@H]2CC[C@H]1N2C(=O)N1CCCC1	0.423
